# Counter-ions that a name gives are not always drawn. ± gives the standard deviation of the averaged measurements. Whole data set: some 1,900 compounds, median “normalised cell viability (NPI; 0 = phenylarsine oxide control, 1 = DMSO control)” near 1, cut for the lowest 2% near 0.039. The list shows a part of the results.
# Test system: NCI-H1944
# Assay: normalised cell viability (NPI; 0 = phenylarsine oxide control, 1 = DMSO control) (fraction of DMSO control); NCI-H1944 is a non-small cell lung cancer line; higher = more viable cells (less compound toxicity)
# Settings: 6 days
# [1] = glucocorticoid arm: hydrocortisone 2.75 uM co-treatment, compound 1 µM
# [2] = glucocorticoid arm: hydrocortisone 2.75 uM co-treatment, compound 5 µM
# [3] = glucocorticoid arm: hydrocortisone 2.75 uM pre-treated 2 days and continued, compound 1 µM
# [4] = glucocorticoid arm: hydrocortisone 2.75 uM pre-treated 2 days and continued, compound 5 µM
# [5] = glucocorticoid arm: vehicle, compound 1 µM
# [6] = glucocorticoid arm: vehicle, compound 5 µM
# 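Note: CTB read-out in 384-well plates, mean of triplicate wells, normalised per plate against 1 µM phenylarsine oxide and 0.1% DMSO, compounds added 24 h after seeding.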
SMILES,normalised cell viability [1],normalised cell viability [2],normalised cell viability [3],normalised cell viability [4],normalised cell viability [5],normalised cell viability [6]
COc1nc(N)nc2c1ncn2[C@@H]1O[C@H](CO)[C@@H](O)[C@@H]1O [Nelarabine],1.01 ± 0.015,0.785 ± 0.052,1.004 ± 0.0098,0.885 ± 0.035,0.9907 ± 0.0029,0.323 ± 0.026
O=C(CCCN1CCC(O)(c2cccc(C(F)(F)F)c2)CC1)c1ccc(F)cc1 [Trifluperidol hydrochloride],0.999 ± 0.0095,0.962 ± 0.022,1.05 ± 0.038,1.04 ± 0.02,1.023 ± 0.0058,1.017 ± 0.0058
CN(C)CCCn1cc(C2=C(c3c[nH]c4ccccc34)C(=O)NC2=O)c2ccccc21,0.992 ± 0.017,1.06 ± 0.011,1.01 ± 0.02,1.01 ± 0.059,1.03 ± 0.011,1.05
O=C(Nc1cccc(Nc2ncc(Br)c(NCCc3cnc[nH]3)n2)c1)N1CCCC1,0.955 ± 0.015,0.805 ± 0.016,0.939 ± 0.0062,0.859 ± 0.02,0.917 ± 0.0095,0.635 ± 0.029
COc1ccccc1N1CCN(CCCNc2cc(=O)n(C)c(=O)n2C)CC1 [Urapidil HCl],0.998 ± 0.038,1.02 ± 0.01,1.02 ± 0.01,0.995 ± 0.022,1.002 ± 0.0068,0.999 ± 0.011
COc1ccccc1N1CCN(CCCNc2cc(=O)n(C)c(=O)n2C)CC1 [Urapidil hydrochloride],1.023 ± 0.0058,1.01 ± 0.01,1.03 ± 0.017,1.017 ± 0.0058,1.01 ± 0.011,1.01 ± 0.01
CN/C(=N\c1ccc(C2=NNC(=O)CC2C)cc1)NC#N (stereo unspecified),0.9943 ± 0.0046,0.992 ± 0.018,0.875 ± 0.22,0.9957 ± 0.0051,0.995 ± 0.005,0.997 ± 0.0052
CN(C)[C@@H]1C(=O)C(C(N)=O)=C(O)[C@@]2(O)C(=O)C3=C(O)c4c(O)ccc(Cl)c4[C@@H](O)[C@H]3C[C@@H]12 [Demeclocycline hydrochloride],0.985 ± 0.015,0.882 ± 0.017,0.9907 ± 0.0055,0.932 ± 0.024,0.975 ± 0.0027,0.967 ± 0.014
Cn1cnc([N+](=O)[O-])c1Sc1ncnc2[nH]cnc12 [Azathioprine],0.963 ± 0.022,0.798 ± 0.031,0.9717 ± 0.0032,0.924 ± 0.023,0.972 ± 0.012,0.863 ± 0.009
CC(=O)Oc1cc2c(s1)CCN(C(C(=O)C1CC1)c1ccccc1F)C2 (stereo unspecified) [Prasugrel],1.007 ± 0.0058,1.05 ± 0.011,0.977 ± 0.039,1.05 ± 0.015,1.007 ± 0.0058,0.9987 ± 0.0023
CC(C)C(=O)Nc1ccc([N+](=O)[O-])c(C(F)(F)F)c1 [Flutamide],1.01,1.01 ± 0.012,1.007 ± 0.0058,1.01 ± 0.011,1.007 ± 0.0058,1.02 ± 0.011
S=C(NCc1ccc2c(c1)OCO2)N1CCN(c2ncnc3c2oc2ccccc23)CC1 [Amuvatinib (MP-470)],0.982 ± 0.019,1.01 ± 0.037,0.9972 ± 0.0086,1.02 ± 0.018,0.975 ± 0.02,0.984 ± 0.012
CC(=O)OCC[N+](C)(C)C [Acetylcholine Chloride],1.01 ± 0.012,1.01 ± 0.025,1.02 ± 0.032,1 ± 0.014,0.996 ± 0.013,0.986 ± 0.016
CC1(C)CCC2=C(O1)c1ccccc1C(=O)C2=O [beta-Lapachone],1.003 ± 0.0058,0.459 ± 0.07,0.995 ± 0.013,0.986 ± 0.013,0.9993 ± 0.0011,0.213 ± 0.019
Cn1c(Nc2ccc(C(F)(F)F)cc2)nc2cc(Oc3ccnc(-c4ncc(C(F)(F)F)[nH]4)c3)ccc21,0.882 ± 0.017,0.889 ± 0.048,0.938 ± 0.0027,0.945 ± 0.026,0.911 ± 0.014,0.901 ± 0.045
O=C(O)/C=C/c1cnc[nH]1 [4-Imidazoleacrylic acid],0.999 ± 0.0017,1.01 ± 0.017,1.05 ± 0.074,1.013 ± 0.0058,1.001 ± 0.0085,0.9917 ± 0.0055
CC(=O)SCC(Cc1ccccc1)C(=O)NCC(=O)OCc1ccccc1 (stereo unspecified) [Racecadotril],1.02 ± 0.011,1.02 ± 0.026,1.01 ± 0.01,1.027 ± 0.0058,1.001 ± 0.0086,1
CC1COc2c(N3CCN(C)CC3)c(F)cc3c(=O)c(C(=O)O)cn1c23 (stereo unspecified) [Ofloxacin],0.9917 ± 0.005,0.965 ± 0.024,0.9977 ± 0.0025,1.02 ± 0.079,0.9773 ± 0.0061,0.985 ± 0.01
CCOC(=O)Nc1ccc(NCc2ccc(F)cc2)nc1N [Flupirtine maleate],0.9973 ± 0.0031,1.01 ± 0.01,1 ± 0.013,1.02 ± 0.015,1.01 ± 0.011,1.01
NC(CO)C(=O)NNCc1ccc(O)c(O)c1O (stereo unspecified) [Benserazide HCl],1.005 ± 0.0087,1.01 ± 0.015,1.03 ± 0.015,1.03 ± 0.021,0.999 ± 0.011,0.9953 ± 0.0057
NC(CO)C(=O)NNCc1ccc(O)c(O)c1O (stereo unspecified) [Benserazide hydrochloride],1 ± 0.018,1 ± 0.017,1.013 ± 0.0058,1.01 ± 0.021,1.006 ± 0.0069,1.007 ± 0.0058
"Cc1cccc(C(=O)NCN2CCN(c3ccccc3C#N)CC2)c1 [PD 168,077 maleate]",0.9943 ± 0.0081,0.957 ± 0.013,1.01 ± 0.03,0.968 ± 0.0087,0.9923 ± 0.0061,0.99 ± 0.0076
CN(C)CCCN1c2ccccc2CCc2ccccc21 [Imipramine hydrochloride],1 ± 0.017,0.979 ± 0.015,1.013 ± 0.0058,1.06 ± 0.091,0.9927 ± 0.004,1.001 ± 0.0081
CN1CCN(c2ccc(OC(F)(F)F)c(Nc3ncc4c(n3)-c3c(c(C(N)=O)nn3CCO)CC4)c2)CC1,0.183 ± 0.025,0.146 ± 0.02,0.428 ± 0.025,0.556 ± 0.069,0.0347 ± 0.0042,0.0361 ± 0.0086
Fc1ccc([C@@H]2CCNC[C@H]2COc2ccc3c(c2)OCO3)cc1 [Paroxetine hydrochloride hemihydrate (MW = 374.83)],0.9837 ± 0.0085,0.965 ± 0.018,0.991 ± 0.0082,0.992 ± 0.0085,0.985 ± 0.011,0.9777 ± 0.0023
Fc1ccc([C@@H]2CCNC[C@H]2COc2ccc3c(c2)OCO3)cc1 [Paroxetine HCl],1.01 ± 0.016,0.963 ± 0.021,1.023 ± 0.0058,0.978 ± 0.0044,1.007 ± 0.0058,1.007 ± 0.0058
